According to PubChem BioAssay AID493208 (National Center for Advancing Translational Sciences (NCATS), 2011):
The campaign covered roughly 44,000 compounds. About 340 (0.77%) were called active. Roughly 5% stayed inconclusive and do not appear here. Calls follow the shape of the dose curve; as a rule, active = well fitted inhibition curve with a large enough effect; inconclusive = small, poorly fitted or top-dose-only effect; inactive = flat fitted curve, though single readings scatter. This is one part of the list.

experiment: Acumen qHTS Assay for Inhibitors of the mTORC1 Signaling Pathway in MEF (Tsc2-/-, p53-/-) Cells: Sytravon; details: phospho-rpS6 immunofluorescence/PI, 24 h; series mostly up to 38.3 µM; activity change, negative = inhibition: at the top concentration; also: nearly all actives have a fitted effect of over 50% in size;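 as to activity change, negative = inhibition: plate controls were DMSO for no effect and rapamycin for full effect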
Method in brief: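 Cell-based qHTS: Tsc2-/- p53-/- MEF, 24 h cpd, 37 °C; fix/perm, anti-phospho-S6 Alexa-488 + PI; Acumen 488 nm scan; pS6/PI ratio, % positive cells; rapamycin 7.5 nM = inhibition ref; PI count = viability.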
Potency is read from the fitted curve at half-maximal effect.

| SMILES | activity change, negative = inhibition | Potency |
| --- | --- | --- |
| CCC1CN(C(=O)N2CCC(C(=O)NCc3ccco3)CC2)c2cc(C)ccc2O1 (centres undefined) | inactive: 10.6% | – |
| COc1cccc(-n2c(-c3ccc(C)cc3)cc3c2CC(C)(C)CC3=O)c1 | inactive: -14.9% | – |
| CCCCOc1ccc(CNC(=O)c2cnc3sc(N4CCC(C)CC4)nn3c2=O)cc1 | inactive: -5.23% | – |
| Cc1ccc2c(c1)CC(C)N2S(=O)(=O)c1nnc(NC(=O)CC(C)C)s1 (centres undefined) | inactive: -2.65% | – |
| Cc1cc(C)c2c(CC(=O)Nc3c(C(=O)c4ccc(F)cc4)oc4ccccc34)coc2c1 | inactive: -3.91% | – |
| COc1ccc(OC)c(NC(=O)CCc2c(C)nc3c(c(C)nn3C(C)(C)C)c2C)c1 | inactive: -11.2% | – |
| Cc1c(NC(=O)c2ccc(Cl)cc2)cc(C(C)C)c(O)c1S(=O)(=O)c1ccccc1 | inactive: 6.81% | – |
| COc1ccccc1C(=O)Nc1ccc(OCc2cc(=O)n3cccc(C)c3n2)cc1 | inactive: -24.4% | – |
| Cc1cc(=O)n(Cc2ccccc2Cl)c2c1c(C)nn2-c1ccccc1 | inactive: -8.57% | – |
| Cc1cc(NC(=O)CSc2nc3c([nH]c4ccccc43)c(=O)n2-c2ccc(Cl)cc2)no1 | inactive: -0.122% | – |
| COc1ccccc1CNC(=O)CCS(=O)(=O)c1ccc2c(c1)CC(C)N2C(=O)C1CC1 (centres undefined) | inactive: 1.31% | – |
| COc1ccccc1CNC(=O)CCc1c(C)nn(-c2ccc(N3CCCC3)nn2)c1C | inactive: -7.99% | – |
| COc1ccc(CC(=O)Nc2nnc3n2CCS3)cc1 | inactive: 1.7% | – |
| O=C(CC1Oc2ccccc2NC1=O)NCc1ccc(F)cc1 (centres undefined) | inactive: -17.9% | – |
| Cc1ccc(CSc2nc3ccsc3c(=O)n2CCC(C)C)cc1 | inactive: -6.97% | – |
| O=c1oc2ccc(F)cc2cc1-c1nc(-c2cccs2)no1 | inactive: 4.88% | – |
| CCN1CCN(C(=O)c2ccc3c(c2)N(Cc2ccc(F)cc2)C(=O)c2ccccc2S3(=O)=O)CC1 | inactive: -6% | – |
| Cc1cccc(OCc2nnc(-c3ccccc3)o2)c1 | inactive: -6.91% | – |
| CCOc1ccc(NC(=O)c2oc(=O)c3ccccc3c2-c2ccc(C)cc2)cc1 | inactive: 1.11% | – |
| CCn1c2c(c(=O)n3ncc(C(=O)Nc4ccc(F)cc4Cl)c13)CN(Cc1ccc(OC)cc1)CC2 | inactive: -0.16% | – |
| CCOc1ccc(-n2c(Cc3ccccc3)nnc2SCc2nc(-c3cccs3)no2)cc1 | inactive: 3.3% | – |
| Cc1ccc(-c2nc(-c3cc4cccc(OCc5cccc(F)c5)c4oc3=O)no2)cc1 | inactive: -1.77% | – |
| COc1cccc(NC(=O)c2sc3nc(C)c(C(=O)Nc4ccc(C)cc4C)c(-c4cccs4)c3c2N)c1 | inactive: 2.36% | – |
| O=C(Nc1ccc(Br)cc1)c1ccc(Cl)c(S(=O)(=O)N2CCCCCC2)c1 | inactive: 9.07% | – |

| SMILES | activity change, negative = inhibition | Potency |
| --- | --- | --- |
| Cc1cc(C)cc(NC(=O)C2CCN(S(=O)(=O)c3c(C)noc3/C=C/c3ccco3)CC2)c1 | inactive: -12% | – |
| Cc1ccn2c(Nc3c(C)cccc3C)c(-c3ccc(Cl)s3)nc2c1 | inactive: -28.1% | – |
| CCCCN(CCCC)C1=C(C(=O)c2ccccc2)N(CC)S(=O)(=O)c2ccccc21 | inactive: 15.9% | – |
| COC(=O)CN1C(=O)C(C)(C)c2cc(S(=O)(=O)NCc3ccc(Cl)cc3)ccc21 | inactive: -0.967% | – |
| COc1ccccc1Nc1c2c(nc3ccc(NC(=O)/C=C/c4cc(OC)c(OC)c(OC)c4)cc13)CCCC2 | – | active: 3.29 µM |
| CCCCCc1ccc(-c2ccc(C(=O)Oc3ccc(C(=O)OC)cc3)cc2)nc1 | inactive: -1.15% | – |
| COc1ccc(CNc2nc(-c3ccc(Cl)cc3)nn2C(=O)c2ccccc2)cc1 | inactive: -3.64% | – |
| COc1ccccc1CNC(=O)c1ccc(CSc2nc3ccncc3n2Cc2ccccc2C)cc1 | inactive: -0.139% | – |
| Cc1ccc(-n2ncc(C(=O)N3CCN(c4ncccn4)CC3)c2C2CCN(C(=O)OC(C)(C)C)CC2)cc1 | inactive: 3.87% | – |
| Cc1cc(C)cc(N2C(=O)CS(=O)(=O)C23C(=O)N(C)c2ccccc23)c1 (centres undefined) | inactive: 0.0894% | – |
| Cc1nc(-c2ccc(S(=O)(=O)N(C)Cc3ccccc3)cc2)co1 | inactive: -14.3% | – |
| CCN(CC)C(=O)CSc1cn(CC(=O)N2CCCCCC2)c2ccccc12 | inactive: -4.68% | – |
| Cc1ccc(NC(=O)C2CCN(c3nc4ccccc4nc3C(F)(F)F)CC2)cc1C | inactive: 0% | – |
| CCn1c2ccccc2c2nnc(N3CCN(c4ccc(OC)cc4)CC3)nc21 | inactive: -16.7% | – |
| COc1ccc(-c2cc(C(F)(F)F)nc(SCCC(=O)Nc3ccc(O)cc3)n2)cc1 | inactive: 9.99% | – |
| CCOC(=O)Cn1nc(C)c(NC(=O)COc2ccc(C)c(C)c2)c1C | inactive: -0.89% | – |
| CCCN(CCC)S(=O)(=O)c1ccc(N2CCCCS2(=O)=O)cc1 | inactive: 0% | – |
| CCOc1ccc(-n2cc(-c3ccccc3)c3c(NCc4ccc(F)cc4)ncnc32)cc1 | inactive: 0.539% | – |
| Fc1ccc([C@@H]2Nc3ccccc3[C@@H]3C=CC[C@@H]32)cc1 | inactive: -21.1% | – |
| O=C(Cn1cc(S(=O)(=O)c2ccc(Cl)cc2)c(=O)c2ccccc21)Nc1ccc2c(c1)OCO2 | inactive: -2.55% | – |
| Cc1ccc(C)c(NC(=O)CSc2ncc3c(n2)-c2ccccc2N(Cc2ccccc2C)S3(=O)=O)c1 | inactive: -8.19% | – |
| Cc1ccc(C)c(S(=O)(=O)Nc2ccc3c(c2)CCCN3C(=O)c2cccs2)c1 | inactive: 8.44% | – |
| COc1ccc(CNS(=O)(=O)c2ccc3c(c2)NC(=O)C(C)C(=O)N3)cc1 (centres undefined) | inactive: -0.68% | – |
| Cc1nnc(N2CCC(C(=O)N3CCCCC3)CC2)c2nn(-c3ccccc3)c(C)c12 | inactive: -7.9% | – |

| SMILES | activity change, negative = inhibition | Potency |
| --- | --- | --- |
| COc1ccc(C)cc1NS(=O)(=O)c1ccc(-c2cnc(C3CC3)o2)cc1 | inactive: -0.198% | – |
| Cc1ccc(C)c(Nc2ncnc3c2cnn3-c2ccc(F)cc2)c1 | inactive: 8.13% | – |
| O=C(NCCc1ccccc1)c1cc(-c2cccc(Cl)c2)on1 | inactive: -1.61% | – |
| COc1ccc(CNc2n[nH]c(-c3ccco3)n2)cc1OC | inactive: -0.298% | – |
| COc1cc(NC(=O)Cn2c(=O)n(Cc3ccccc3Cl)c(=O)c3cc(OC)c(OC)cc32)cc(OC)c1 | inactive: 0.247% | – |
| CCCc1c(C(=O)OCC)nnc2c(-c3ccccc3)c(C)nn12 | inactive: -4.84% | – |
| COc1ccc(CCN2C(=O)N(c3ccc(F)cc3)C(=O)C2CC(=O)Nc2ccccc2)cc1OC (centres undefined) | inactive: 10.5% | – |
| COc1ccc(C2c3c(n(C)c4ccccc34)C(=O)N2CC(=O)Nc2ccccc2Cl)cc1 (centres undefined) | inactive: -3.84% | – |
| COc1cc(NC(=O)c2cc3nc(-c4ccc(C)cc4)cc(C(F)(F)F)n3n2)cc(OC)c1OC | inactive: 6.15% | – |
| CCc1ccc(NC(=O)c2cc(S(=O)(=O)N3CCCCC3)c[nH]2)cc1 | inactive: 0% | – |
| O=S(=O)(Nc1ccc(F)cc1F)c1ccc(Br)s1 | inactive: -1.02% | – |
| Cc1ccc(CNC(=O)c2nnn(Cc3ccc(F)cc3)c2N)cc1 | inactive: -10.2% | – |
| COc1ccc(OCc2ccc(-c3nc(C#N)c(N4CCC(C(N)=O)CC4)o3)o2)cc1 | inactive: 0.199% | – |
| CC(=O)c1cccc(NC(=O)Cn2c(=O)oc3cc(S(=O)(=O)NCc4ccccc4)ccc32)c1 | inactive: -4.63% | – |
| COc1ccc(CCNC(=O)c2cnc3sc(N4CCOCC4)nn3c2=O)cc1OC | inactive: 1.5% | – |
| CCn1c2c(c(=O)n3ncc(C(=O)Nc4ccc(OC(F)(F)F)cc4)c13)CN(Cc1ccc(OC)cc1)CC2 | inactive: -0.49% | – |
| COc1ccc(CCNC(=O)c2c[nH]n3c(=O)c(Cc4ccccc4Cl)c(C)nc23)cc1OC | inactive: -26.6% | – |
| Cc1ccc2c(c1)cc1c(=O)n(CC(=O)NC(C)CCc3ccccc3)nc(C)n12 (centres undefined) | inactive: -2.71% | – |
| O=C(NCc1cccs1)c1ccc(CSc2nc3cccnc3n2Cc2ccc(F)cc2)cc1 | inactive: 0.0169% | – |
| Cn1c2c(c(=O)n(C)c1=O)C(c1ccccc1[N+](=O)[O-])CC(=O)N2 (centres undefined) | inactive: -3.54% | – |
| COc1ccc(-c2nn(-c3ccc(F)cc3)c3c2cnc2cc4c(cc23)OCO4)cc1 | inactive: 10.2% | – |
| COc1ccccc1CNc1ccc(-c2nc(-c3ccccc3C)no2)cc1[N+](=O)[O-] | inactive: 3.4% | – |
| CCc1ccccc1NC(=O)CSc1nc2n[nH]c(C)c2c(=N)n1-c1cccc(C)c1 | inactive: -6.72% | – |
| CCOc1nc(NC(=O)NS(=O)(=O)Oc2cccc(Cl)c2)nc(-c2ccccc2)n1 | inactive: -13.6% | – |

| SMILES | activity change, negative = inhibition | Potency |
| --- | --- | --- |
| Cc1cc(C)cc(NC(=O)C2CCN(C(=O)c3cnn(-c4ccccc4)c3-n3cccc3)CC2)c1 | inactive: -3.27% | – |
| CC1CCn2c(nc3cc(C(=O)NCc4ccc(F)cc4)ccc32)C1 (centres undefined) | inactive: 9.92% | – |
| O=C(Nc1ccc(F)c(F)c1)c1cc(S(=O)(=O)NCc2ccc3c(c2)OCO3)ccc1F | inactive: -10.9% | – |
| CCOC(=O)c1nn2c(C(F)(F)F)cc(-c3ccc(C)cc3)nc2c1Cl | inactive: -16.1% | – |
| CCCCC(=O)Nc1nnc(SCc2cc(=O)n3cc(C)ccc3n2)s1 | inactive: 6.58% | – |
| COc1ccc(-c2c(C#N)c(SCC(=O)Nc3ccc(C)cc3)nc(C)c2C(=O)Nc2ccccc2)cc1 | inactive: -2.51% | – |
| Cc1ccc(CNC(=O)CSc2nc(=O)n(Cc3ccco3)c3c2CCC3)cc1 | inactive: -5.89% | – |
| COc1ccc(C2=NC3(CCCCCC3)N(CC(=O)Nc3cccc(Cl)c3)C2=O)cc1 | inactive: -0.518% | – |
| COc1cccc(CNC(=O)CN2CCCN(Cc3ccccc3)S2(=O)=O)c1 | inactive: 3.27% | – |
| Cc1ccn2c(Nc3ccc4c(c3)OCO4)c(-c3ccc(Cl)cc3)nc2c1 | inactive: -16.7% | – |
| COc1cccc(NC(=O)Cn2c(=O)ccc3cc(S(=O)(=O)N4CCC(C)CC4)ccc32)c1 | inactive: 1.87% | – |
| CCSc1nc2c([nH]c3ccccc32)c(=O)n1-c1cccc(OC)c1 | inactive: -3.02% | – |
| COc1ccc(Cl)cc1S(=O)(=O)N1CCN(CC(=O)Nc2ccccc2C(F)(F)F)CC1 | inactive: 4.71% | – |
| CCOc1ccc(-n2nc3ccc(NC(=O)c4cccc(F)c4)cc3n2)cc1 | inactive: 0.315% | – |
| CCOc1ccc(-c2nnc(SCC(=O)NC(C)CC)nc2-c2ccc(OCC)c(OC)c2)cc1OC (centres undefined) | inactive: 1.31% | – |
| COc1ccc(Cn2cc(C(=O)c3ccc(F)cc3)c(=O)c3cc4c(cc32)OCCO4)cc1 | inactive: 3.2% | – |
| Cc1nn(C)c(C)c1CCNC(=O)Nc1cccc(Cl)c1C | inactive: 3.37% | – |
| COc1cc(C(=O)Nc2cccc(OCc3cc(=O)n4cc(C)sc4n3)c2)cc(OC)c1OC | inactive: -7.83% | – |
| CC(=O)Nc1nonc1-c1nnc(SCC(=O)Nc2cccc(C)c2C)n1-c1ccccc1 | inactive: -2.2% | – |
| COc1ccc(-c2nc3ccccc3o2)cc1NC(=O)c1ccc(-c2ccc(Br)cc2)o1 | inactive: -2.84% | – |
| CC1CCN(C(=O)Cn2cc(SCC(=O)Nc3ccccc3C(F)(F)F)c3ccccc32)CC1 | inactive: -6% | – |
| COc1ccc(-c2nc(CCNC(=O)c3c(F)cccc3Cl)cs2)cc1 | inactive: -18.9% | – |
